Measurements published in publication PMC5836133.
Some of the results follow. At the low end of the ranking the order means little.

These sequences were tested on T1, GST-NbGlk1(82-244) (assay: protein-binding microarray). Details: NbGlk1 is a Golden2-like transcription factor of Nicotiana benthamiana; high values mean tight binding; most listed sequences are background and not binding sites; double strand, one strand shown.
T1 sequence: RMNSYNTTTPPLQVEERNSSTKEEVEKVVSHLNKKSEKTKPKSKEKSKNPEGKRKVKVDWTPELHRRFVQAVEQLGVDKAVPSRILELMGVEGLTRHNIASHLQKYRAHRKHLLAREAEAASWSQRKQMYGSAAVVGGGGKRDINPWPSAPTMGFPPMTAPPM
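Note: rank-based score ranging −0.5 to +0.5 with E above 0.45 taken as significant binding.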

Sequence	binding signal [E-score]
ACGCTAAG	-0.0978
AAGCTTGA	-0.123
AGAACCGC	-0.137
CAACCACG	-0.0691
ACCAACGC	-0.17
CACGTACC	-0.252
CAGCACCC	-0.198
AGGCTGCC	-0.293
AATTCTAC	0.133
ATTCGCCA	0.278
CACCATCA	-0.0947
CACACACC	-0.167
AGATATAA	0.208
ATCATATC	0.329
ACCCCGGG	-0.207
AATACCCA	0.148
AACCAAAC	-0.073
ACACCCCA	-0.11
CACGCTCG	-0.0742
ACCCGCAA	0.0874
AATCCGGC	0.388
AATACCAT	0.00186
AGGAAGGA	-0.0882
AAGCGGTA	-0.0248
AAATACTC	0.12

Sequence	binding signal [E-score]
AACCCTCG	-0.231
ACCGTCTA	-0.187
ACCAAATA	0.0565
ACGCAAGC	0.00941
AAAACTTG	-0.0438
AAAAAATG	-0.0139
ACGGGCAT	-0.114
ATTTACGG	0.00553
AAAGCTGA	-0.0963
AGGATAAA	0.0638
AAAGCGCA	-0.136
CACTGCTC	-0.228
ATAGGTGC	0.0346
AGGCGCAT	-0.122
ATCTTACC	0.252
AAAGGTAG	-0.00915
ATTATAGG	0.121
CAGACCGG	-0.0845
ACGGCTCC	0.00315
AAACCTTT	0.0369
ACTCCGCC	-0.221
ATGAAAGC	-0.0457
AATGTGCA	0.051
ATGCATAC	0.063
ATGCTGAG	-0.098

Sequence	binding signal [E-score]
ACTAAGAT	0.231
AACGATGC	-0.179
AAGGTCGG	-0.109
AGGCCCCC	-0.379
CAATGTCA	0.0859
AAAGGGGC	-0.241
ACATCTGG	0.033
ACCATAGT	-0.0902
AACTCATA	-0.0117
ATATGTCG	0.0948
AAAATCCG	0.446
ATGATTTC	0.387
AAGATAAG	0.0993
ACATATGG	-0.0525
ACGAGCAT	-0.0644
ACCTAGCG	-0.191
ACAGCCTA	-0.134
ATTGGCCG	-0.131
ATAAACTC	0.0551
CAAGATCG	0.284
AGGCATTG	-0.0875
ACCTTAGC	-0.0505
AAGCGTTG	0.019
AAGAGAGT	-0.16
ACCCCAGG	-0.222

Sequence	binding signal [E-score]
AACCTCAC	-0.148
AGGGTTAT	-0.148
AGGGTCAC	-0.0446
ACATAACG	0.0827
AACTAAAG	-0.097
ATAGCGCC	-0.115
ATTATACA	0.136
AACGTGGA	0.00477
ATTGACAG	0.0906
CAGAGGAA	-0.209
CAATCTCG	0.404
ATTTGAAG	0.178
ACCCTTAG	-0.143
AGAGACCG	-0.177
AGTGTCAC	-0.207
ACCACGAT	0.048
AACACACT	-0.115
ATAGTTCA	0.00351
AGATGACC	-0.109
AAAGGTTG	0.0119
ATGGTGTG	0.0201
ACTATCAG	-0.00334
AAGTCGAC	-0.174
AGCCTATC	0.0694
ACAAGCGT	-0.24

Sequence	binding signal [E-score]
CAACAGGG	-0.112
ACTATGGA	-0.0113
AGAGGGCG	-0.214
AGACGTTA	-0.192
AAGTTAAC	0.0198
CAATGGAC	-0.13
ACAGCTCT	-0.0931
ATAAAAGA	0.173
ATAACCAA	-0.00893
ACAGATTA	0.362
AATACAAC	0.00615
ATTTAAAC	0.096
ACAGATGC	-0.163
ATGTAACG	-0.0628
CAAAACCA	-0.11
AAAGAGAG	-0.128
CAGACATA	-0.0824
AAGCACGG	-0.089
AGGTTACT	-0.0542
ACTCGAGT	-0.208
AAACAGGA	0.0635
AGAATCCT	0.439
CAAGACAG	-0.0527
ATGTGTTC	-0.0817
ACCTAATC	0.0526

Sequence	binding signal [E-score]
ATACATTG	0.0937
ACCAAAAA	0.117
AGAGCAGC	-0.248
ACTTTAGA	0.072
ATAGAATG	-0.032
ATAAACAT	0.107
AGTCAATA	0.0438
ATGAAGAG	-0.091
ACCGTAAG	0.0638
ACATCCCT	-0.019
CAATGGTC	-0.126
AATCAGGC	0.29
CAATAAAC	0.00712
AAACCCGC	-0.00698
AAACGACG	-0.0669
ATACTTGA	0.0379
ATGTTGGC	-0.113
ACGTGAGA	-0.0736
ATTGGCAC	-0.114
AGAGCGCC	-0.239
AGTTGACA	0.00696
ATGGGGCC	-0.216
AGCTCTGG	-0.166
AACATCGT	0.00391
AGATAATC	0.339

Sequence	binding signal [E-score]
ATGTGCTA	-0.114
ACAACAAG	-0.0212
AGAGAACA	-0.0544
ACTGACGA	-0.00265
ACCCTATC	-0.113
ACGATCGT	0.179
ATCCGGTG	0.295
AAGGACTG	-0.223
AACCGGAT	0.233
AGGAATAG	-0.137
AAGTAAGT	0.00921
ATCCCGAC	0.236
AAGGGGTC	-0.339
AAAATTCA	0.0726
AGGCCAGA	-0.0612
ACATCACA	-0.0948
CACAGTTA	-0.0121
CACGGCCG	-0.181
ATATTGCG	0.328
AGATGACG	-0.0603
AAGTCTTC	-0.0766
AATTTATG	0.136
ACCATCCA	-0.05
ATTGACAC	-0.0173
AGTAGAGA	-0.00507

Sequence	binding signal [E-score]
ACCGCATC	-0.0245
AGACGCGA	0.12
ACCTCCTC	-0.283
AAACTTGA	-0.0302
AATCCATA	0.379
CACATCGC	-0.0862
ATGGGACA	-0.104
AATGGCCA	-0.223
CACTGTTC	-0.0306
ATCGAGAC	-0.00929
ATATTTGG	0.153
ACCCCCGC	-0.224
ATAAACGC	-0.0452
ACAAATGA	0.0633
ATGTCCTG	-0.143
AATAACAG	0.0587
AATGCTGC	-0.186
ATTGAGAG	-0.0172
CACCGCGC	-0.0057
ATGGGTCC	-0.242
AGTTGGTA	0.0777
AGCTTTGC	-0.107
AAGAGCGA	0.00939
AGGTTTCA	-0.179
AGCATACA	-0.0867

Sequence	binding signal [E-score]
AGCACAGG	-0.236
AACCACTT	-0.0254
ACTGCGGG	-0.0271
ACAACCGC	-0.0874
AGCTGAGA	0.0806
AGATATAG	0.225
ATACTTTA	0.1
AAGGGTGC	-0.283
AGGCCCAT	-0.211
ACCCAAGT	-0.225
ATGGGCCC	-0.342
ACTAGTCA	-0.193
ATAGTCAG	-0.0731
AGTAATGG	-0.0934
CAAGCGAA	-0.00999
ACTAGATG	-0.117
AGGAAGCG	-0.173
CAATGTGA	-0.0157
AGGGGGAC	-0.333
ATTGGGAG	0.0185
AAAGTACC	-0.141
AAAATGTG	0.01
ATACCTAT	0.0775
ACGATGCC	-0.205
ATCCCCCC	0.0775

Sequence	binding signal [E-score]
AGGTGACA	-0.0422
ACTACGAA	-0.0463
ACCGGTCC	-0.153
ATAAATCA	0.239
ACCATACA	-0.0128
AAAGTCCC	-0.34
ACTGGCCC	-0.171
ACACAAGC	-0.116
AAACGAGA	0.137
ACACTGGC	-0.185
AAGAGTCG	-0.0465
ATTTGATC	0.164
ATCAGCTA	0.109
ATCCGCAG	0.223
AAGACGGC	-0.248
AACGTACC	-0.247
AAAAGAGT	0.0215
CACAACAA	0.141
AGTCTCCC	-0.377
AGCAGCAC	-0.174
AAGACCGA	-0.234
ATGAAGCC	-0.296
CAAGCGAC	-0.14
ACGTAAAC	-0.062
AAGCTCCT	-0.305

Sequence	binding signal [E-score]
AGCATGTC	-0.121
CAGCAGGA	-0.132
ATGCACTC	-0.182
AATCTGCC	0.34
ATCCGATG	0.208
CACAGGCG	-0.171
AGTTCTGC	-0.0185
ATATACCG	0.0722
AGCACTTA	-0.0371
AGCCGCCT	-0.236
CAGAAGGC	-0.286
AACTACCA	-0.0569
ATCCTAGC	0.237
AGGCACCT	-0.254
CACTCCGC	-0.203
CAGCGTCC	-0.16
CAACTTTA	-0.034
ACGGAGAG	-0.185
CAAACACC	-0.104
AGATTCCA	0.433
AATTACCT	0.213
AAACGTTC	-0.171
AAGTTAGT	0.00702
AGCCGACT	-0.187
CAATACAG	0.0681

Sequence	binding signal [E-score]
AACGAGCT	-0.0762
AGTGGAGG	-0.202
AAACCCTC	-0.237
ATTTCGTG	0.367
ACCGTTTG	-0.0244
ATATCCGG	0.436
AGCGGCGG	-0.205
ACGATGCG	-0.0275
ATTCGTTA	0.202
AGTCATTG	-0.0345
ATGAGCTA	-0.171
ACTTGGAA	0.0699
AGTAACTA	0.0576
AGTGCTAA	-0.0173
ACAGGTAG	-0.0986
AAACCAGT	-0.0791
AACAAAGC	-0.0125
AGAAACCG	-0.0287
AACGGACC	-0.184
AGCACTAC	-0.0703
AGTTGTAT	0.0957
CAACCCAG	-0.138
AGAATAGG	-0.0981
ATTGGTTG	0.0205
ATCGATTG	0.272

Sequence	binding signal [E-score]
AACGCGAA	0.0618
AGTGCCGC	-0.193
AAATAGCT	0.0072
AGGCTGCA	-0.211
ACATTTGC	-0.103
AAAGTGCA	-0.1
ACGCCAGC	-0.283
CAAACAAA	0.0211
ACAAGTGG	-0.197
CAATTTTA	0.111
AATCACTC	0.133
ACAAGTGT	-0.197
ACCGGTCT	-0.125
ATTTGTAG	0.21
CACCAGTG	-0.299
ACGGCGGG	-0.131
ATCGAGAG	0.0944
ACGGAATC	0.453
AGATGGAC	-0.292
ATCGGAAA	0.25
ACGCGCTC	-0.127
CACGTACA	-0.00907
AAGGTAAG	-0.0123
AGCTCCCC	-0.186
AGGATGAA	-0.213

Sequence	binding signal [E-score]
AATGGGTA	-0.0452
AGTTGACC	-0.242
ATGCGCCG	-0.0258
CAAGCACC	-0.168
ATGTTTTA	0.00726
AAAGCGAC	-0.245
ATCCTGTG	0.205
ACTCAGAA	0.122
ATGAACCC	-0.259
CAGCAGCG	-0.155
CAACGATG	-0.0643
AGAATCGA	0.342
ATGACGGG	-0.223
CACCCTAA	-0.00986
AGGTCTGC	-0.163
ACTTTTTA	0.0564
ATCTGAGG	0.265
ACCAAAAC	-0.0457
AAGCTAAG	-0.23
